Measurements from publication PMC4336329 (PLoS ONE, 2015).
Screen size: about 310,000 compounds; about 14,000 (4.5%) showed an effect of 50% or more. The effect is printed as a negative number. This is one part of the list.

target: human ether-à-go-go-related gene (hERG) potassium channel (human, UniProt Q12809); assay: primary screen, population patch clamp on CHO cells stably expressing hERG
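Further: peak tail current of the secondary pulse compared with the same well before compound.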

Chain of human ether-à-go-go-related gene (hERG) potassium channel (Q12809 whole entry, looked up): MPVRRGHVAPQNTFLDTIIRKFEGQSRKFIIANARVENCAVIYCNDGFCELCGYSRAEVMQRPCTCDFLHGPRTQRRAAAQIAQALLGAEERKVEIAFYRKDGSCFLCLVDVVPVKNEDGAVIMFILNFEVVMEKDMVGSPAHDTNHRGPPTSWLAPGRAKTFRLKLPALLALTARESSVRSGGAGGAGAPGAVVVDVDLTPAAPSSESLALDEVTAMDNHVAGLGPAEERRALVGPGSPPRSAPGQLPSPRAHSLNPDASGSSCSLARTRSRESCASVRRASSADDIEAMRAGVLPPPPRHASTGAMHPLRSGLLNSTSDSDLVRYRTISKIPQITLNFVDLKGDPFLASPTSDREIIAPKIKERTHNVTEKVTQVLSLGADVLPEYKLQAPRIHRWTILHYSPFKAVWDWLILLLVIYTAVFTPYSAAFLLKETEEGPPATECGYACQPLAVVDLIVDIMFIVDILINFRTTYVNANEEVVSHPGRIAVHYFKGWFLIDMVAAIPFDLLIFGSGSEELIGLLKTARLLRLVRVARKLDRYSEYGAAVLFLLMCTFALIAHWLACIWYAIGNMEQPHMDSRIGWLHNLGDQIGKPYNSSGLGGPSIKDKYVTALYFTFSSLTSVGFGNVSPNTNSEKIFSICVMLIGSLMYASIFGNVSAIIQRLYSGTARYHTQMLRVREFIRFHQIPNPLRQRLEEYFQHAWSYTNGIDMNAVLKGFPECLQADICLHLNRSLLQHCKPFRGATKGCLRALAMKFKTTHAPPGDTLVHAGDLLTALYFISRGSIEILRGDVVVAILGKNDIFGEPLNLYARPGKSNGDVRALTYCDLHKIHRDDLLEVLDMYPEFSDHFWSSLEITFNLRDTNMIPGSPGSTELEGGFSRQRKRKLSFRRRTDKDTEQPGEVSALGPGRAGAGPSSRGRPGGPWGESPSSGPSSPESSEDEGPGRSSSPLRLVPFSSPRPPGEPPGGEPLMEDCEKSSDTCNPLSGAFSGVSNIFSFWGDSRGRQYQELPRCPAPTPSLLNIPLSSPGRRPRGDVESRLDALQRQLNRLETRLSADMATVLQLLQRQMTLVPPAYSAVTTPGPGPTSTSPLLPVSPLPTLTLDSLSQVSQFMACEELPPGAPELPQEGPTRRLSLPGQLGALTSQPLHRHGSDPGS

SMILES | hERG current change (%, negative = inhibition) at 10uM [%]
O=C(NCc1cccnc1)C(=O)NCC(c1ccco1)N1CCN(c2ccccc2F)CC1 (stereo not drawn) | -4.89
CC1(C)CC(=O)C2=C(C1)OC1=C(C(=O)CC(C)(C)C1)C2c1ccc(O)c([N+](=O)[O-])c1 | 14
CC1CN(C(=O)c2cccc(S(=O)(=O)N3CCOCC3)c2)CC(C)O1 (stereo not drawn) | -12
CCOc1ncccc1C(=O)Oc1ccc2c(c1)OCO2 | -5.23
Cc1cccc(C2CC(c3ccc(Br)cc3)Nc3nc(N)nn32)c1 (stereo not drawn) | -25.2
O=C(CSc1ncnc2c1cnn2-c1ccc(F)cc1)NCc1ccc2c(c1)OCO2 | 21
Cc1ccc(C)c(NC(=O)CCN2CCOCC2)c1 | 23
Cc1ccc(C(=O)N/C(=C/c2ccco2)C(=O)N2CCC(C)CC2)cc1 | 24
O=C(Nc1ccc(S(=O)(=O)Nc2ncccn2)cc1)c1ccccc1Cl | -16.4
Cc1ccc2cccc(OCc3ccc(F)cc3)c2n1 | -0.4
NS(=O)(=O)c1ccc(CNC(=O)c2csc3c2CCCC3)cc1 | -4.61
COc1ccc(NC(=O)Nc2c[nH]c(=O)[nH]c2=O)cc1OC | 13.3
COc1ccc(CCNC(=O)C2CC(=O)N(c3ccc(F)cc3)C2)cc1OC (stereo not drawn) | 5.42
CC(C)CN1CCC(=O)N([C@H](COc2ccccc2)Cc2ccccc2)CC1 | -71.7
Cn1nccc1C(=O)N1CCN(c2ccc(F)cc2)CC1 | -1.88
CCC1(c2ccc(F)cc2)NC(=O)N(CC(=O)N2CCN(S(=O)(=O)c3ccc(C)cc3)CC2)C1=O (stereo not drawn) | -18
CC1CN(c2oc(COc3ccc(Cl)cc3Cl)nc2C#N)CC(C)O1 (stereo not drawn) | -13.6
O=C(Nc1ccc(Cl)c([N+](=O)[O-])c1)Nc1nc2ccccc2s1 | 17.6
CC(C(=O)N1CCCc2c1c(=O)oc1ccc(O)cc21)N1CCc2ccccc2C1 (stereo not drawn) | -56.5
COc1cc(C(=O)NCc2ccccn2)ccc1OCc1c(C)noc1C | -5.19
Cc1cccnc1Nc1nc(-c2ccc(F)cc2)cs1 | 8.48
CCCn1nc(C(=O)NCC2COc3ccccc3O2)c2ccccc2c1=O (stereo not drawn) | -36.2
COc1ccc(S(=O)(=O)Oc2cccc(/C=N/N=C3/NC(=O)C(CC(=O)O)S3)c2)cc1 (stereo not drawn) | 15.3
[O-]C1=N/[N+](=C/c2ccccc2)CC1 | 5.81
Cc1ccc(C)n1-c1sc2c(c1C#N)CCC(C)C2 (stereo not drawn) | 11
COC(=O)c1ccc([N+](=O)[O-])cc1N1C(=O)C2C3CCC(C3)C2C1=O (stereo not drawn) | 13.3
COC(=O)c1cc(C(=O)NCCCN2CCOCC2)cc([N+](=O)[O-])c1.Cl | 25.3

SMILES | hERG current change (%, negative = inhibition) at 10uM [%]
COc1ccc(N(CC(=O)NCCC2=CCCCC2)S(=O)(=O)c2ccccc2)cc1OC | -6.49
CC(C)CN1C(=O)c2ccc(C(=O)Nc3ccncc3)cc2C1=O | -29.4
COC(CN1C(=O)C(=O)/C(=C(/O)c2ccccc2)C1c1ccccn1)OC (stereo not drawn) | 9.62
CCOc1ccc(C2C(C(C)=O)=C(O)C(=O)N2CCc2c[nH]c3ccccc23)cc1 (stereo not drawn) | 10.3
O=C(COC(=O)C12CC3CC(CC(C3)C1)C2)NCCCc1ccccc1 | 2.32
COc1cccc(C(=O)N/N=C2\SCC(=O)N2Cc2ccc3c(c2)OCO3)c1 | -26.2
COc1ccc(C(=O)OCC(=O)C(C)(C)C)cc1S(=O)(=O)N(C)CCc1cccnc1 | -5.5
CCN(C(=O)COC(=O)CSc1ccccc1)c1c(N)n(Cc2ccccc2)c(=O)[nH]c1=O | 4.11
CCCCNC(=O)c1sc2nc(C)cc(COC)c2c1-n1cccc1 | -10.7
COc1ccnc(Oc2ccc(F)cc2)c1C(=O)N/C=N/OCc1ccccc1 | -6.62
CCC1CCCCN1C(=O)CSc1nnc(-c2cccs2)o1 (stereo not drawn) | -11.4
O=C(O)C1C2C=CC(C2)C1C(=O)NCCCN1CCOCC1 (stereo not drawn) | 13.3
COCCCNC(=O)Cn1nnc(-c2ccccc2NC(=O)c2ccc(F)cc2)n1 | 10.6
CCCN(CCC)S(=O)(=O)c1cc(CN2C(=O)c3cccnc3C2=O)ccc1OC | -2.88
Cc1cccc(C(=O)N2CCC(n3nnc4cc(F)ccc43)CC2)c1 | -34.8
CC(C)(C)NC(=S)N1CCC(C(=O)c2ccc(Cl)cc2)CC1 | 13.9
O=C(OCC(=O)N1CCOCC1)c1ccc(Br)cc1 | 8.72
Cc1cc(C)cc(Oc2nc3c(C)cccn3c(=O)c2/C=C(\C#N)C(=O)NC2CCS(=O)(=O)C2)c1 (stereo not drawn) | -25.1
Cc1ccc(SC[C@H](Cc2ccccc2)N2CC[C@@H](NC(=O)OCc3ccccc3)CCC2=O)cc1 | -47.2
COc1cccc(/C=C/C(=O)NNC(=O)c2ccco2)c1OC | -1.46
Cc1ccc(C2NC(c3ccc(C)cc3)C([N+](=O)[O-])C(C)(C)C2[N+](=O)[O-])cc1 (stereo not drawn) | -4.35
O=C(Nc1ccc(C(=O)O)cc1)/C(=C\c1ccccc1)NC(=O)c1ccc(Br)cc1 | 7.33
CCOc1ccc(S(=O)(=O)NCCC(=O)NCC(c2cccs2)N(C)C)cc1 (stereo not drawn) | -11.6
COc1ccc(OC)c2c1CCC2=O | 21.1
COc1ccc(-c2nc(C(=O)NCC3CCCO3)cc3c2[nH]c2ccccc23)cc1 (stereo not drawn) | -2.81
O=C(CSc1nc2ccccc2nc1N1CCCCC1)N1CCN(c2ccccc2)CC1 | 1.86
COc1cc(/C=C2\CC/C(=C\c3cc(OC)c(OC)c(OC)c3)C2=O)cc(OC)c1OC | 21.5
